Measurements: article PMC4336329 (PLoS ONE, 2015)
The campaign covered roughly 310,000 compounds. About 14,000 (4.5%) showed an effect of 50% or more. Effects have a minus sign here. This is one part of the list.

Biological target: human ether-à-go-go-related gene (hERG) potassium channel (human, UniProt Q12809)
Experiment: primary screen, population patch clamp on CHO cells stably expressing hERG
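Note: peak tail current of the secondary pulse compared with the same well before compound.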

Sequence of human ether-à-go-go-related gene (hERG) potassium channel (Q12809 whole entry, looked up): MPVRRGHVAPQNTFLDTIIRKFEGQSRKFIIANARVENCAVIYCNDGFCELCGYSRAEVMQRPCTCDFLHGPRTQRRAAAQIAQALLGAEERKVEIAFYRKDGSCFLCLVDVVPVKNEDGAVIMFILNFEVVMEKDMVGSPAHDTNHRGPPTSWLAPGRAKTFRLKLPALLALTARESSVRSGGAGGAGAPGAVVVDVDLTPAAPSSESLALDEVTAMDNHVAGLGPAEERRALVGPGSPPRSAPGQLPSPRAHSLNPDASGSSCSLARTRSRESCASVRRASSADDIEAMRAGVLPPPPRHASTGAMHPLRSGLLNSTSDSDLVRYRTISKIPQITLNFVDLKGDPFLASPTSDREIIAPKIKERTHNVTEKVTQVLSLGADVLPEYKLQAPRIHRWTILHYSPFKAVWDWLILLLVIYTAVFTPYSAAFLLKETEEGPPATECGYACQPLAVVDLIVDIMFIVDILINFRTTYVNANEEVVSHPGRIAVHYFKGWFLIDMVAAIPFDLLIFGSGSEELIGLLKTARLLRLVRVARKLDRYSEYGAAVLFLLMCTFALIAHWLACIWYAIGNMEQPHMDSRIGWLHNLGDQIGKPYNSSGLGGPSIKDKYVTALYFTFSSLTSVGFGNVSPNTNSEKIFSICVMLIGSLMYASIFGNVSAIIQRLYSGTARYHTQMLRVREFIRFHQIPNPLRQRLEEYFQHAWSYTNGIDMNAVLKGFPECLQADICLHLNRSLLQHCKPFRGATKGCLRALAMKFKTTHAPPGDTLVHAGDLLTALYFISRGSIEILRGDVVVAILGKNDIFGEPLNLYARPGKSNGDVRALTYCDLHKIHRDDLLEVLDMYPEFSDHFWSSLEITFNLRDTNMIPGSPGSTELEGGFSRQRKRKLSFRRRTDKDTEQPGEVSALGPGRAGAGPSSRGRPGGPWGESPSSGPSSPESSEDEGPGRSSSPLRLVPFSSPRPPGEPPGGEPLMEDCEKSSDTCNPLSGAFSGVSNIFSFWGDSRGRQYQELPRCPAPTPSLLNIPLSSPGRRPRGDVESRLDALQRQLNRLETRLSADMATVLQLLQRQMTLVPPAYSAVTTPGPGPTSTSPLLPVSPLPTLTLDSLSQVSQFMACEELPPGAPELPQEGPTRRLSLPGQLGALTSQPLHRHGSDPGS

SMILES | hERG current change (%, negative = inhibition) at 10uM [%]
CCOc1ccc(NC(=O)CSc2nnc(-c3ccccn3)n2C)cc1 | -13.5
CC(/C=N/NC(=O)c1ccc2nc(C)[nH]c2c1)=C\c1ccccc1 | -9.33
Cc1ccccc1S(=O)(=O)Cc1ccc(C(=O)NCCc2ccccc2)o1 | -30.6
O=C1Nc2ccccc2/C1=C/c1ccnc2ccccc12 | -11.5
CCOC(=O)C1CCN(CC(=O)Nc2c(C(=O)OC)[nH]c3ccc(Cl)cc23)CC1 | -15
CCOc1ccc(OCCC(=O)OCC(=O)Nc2ccc3c(c2)OCCO3)cc1 | -5.02
COc1ccccc1CCN=C(N)NS(=O)(=O)c1cc(F)ccc1F | -3.69
Cc1cc(Nc2ccccc2)nc(-c2ccccc2O)n1 | 3.21
COC(=O)c1c(NC(=O)CC2NCCNC2=O)sc2c1CCCC2 (stereo not drawn) | 2.63
Cc1ccc(N(CC(=O)NC2CCCC2)C(=O)Cn2nnc(-c3ccccc3F)n2)cc1 | -50
COCCCNC(=S)NC1CC2CCCC(C1)N2Cc1ccco1 (stereo not drawn) | -18.8
O=C(CSCc1c(Cl)cccc1Cl)N1CCOCC1 | 0.183
O=[N+]([O-])c1cc(-c2ccc(C(=S)N3CCOCC3)o2)ccc1Cl | 11.9
O=C(CSc1nc2c(c(=O)n1-c1ccc(Cl)cc1)SCC2)N1CCOCC1 | -14.2
CCOC(=O)N1CCN(CC(=O)n2c(C)c(C)c3ccccc32)CC1.O=C(O)C(=O)O | -13
Cc1ccc(NC(=O)CN2C(=O)NC3(CCCC3)C2=O)cc1S(=O)(=O)N1CCCCC1 | -15.6
COc1cc(C(=O)Nc2nc3ccccc3s2)ccc1OCc1c(C)noc1C | 3.33
CNC(=O)NNC(=O)c1csc(-c2ccc(C(F)(F)F)cc2Cl)n1 | 5.24
CCC1=NN2C(=N)/C(=C\c3cccn3-c3ccc(C)c(C)c3)C(=O)N=C2S1 | -6.32
C/C(Cc1ccccc1)=N\NC(=O)c1ccccn1 | 22.5
Cc1ccc(S(=O)(=O)N2CCOC2CNC(=O)C(=O)NCc2cccnc2)cc1 (stereo not drawn) | 14.4
C/C(CC(=O)Nc1c(C)cc(C)cc1C)=N\NC(=O)OC(C)(C)C | 3.35
CC(OC(=O)C1CC1C)C(=O)Nc1ncc(Cl)cc1Cl (stereo not drawn) | 8.13

SMILES | hERG current change (%, negative = inhibition) at 10uM [%]
O=C(Cn1c2c(c(-c3ccccc3Cl)cc1=O)CCC2)NCC1CCCO1 (stereo not drawn) | -2.33
COCC(C)NC(=O)Cc1ccc(Cl)cc1 (stereo not drawn) | 18.7
CNC(=S)N1CCN(c2nc(-c3ccc(Cl)cc3)cs2)CC1 | 14.7
Cc1ccc(NS(=O)(=O)c2ccc3c(c2)NC(=O)CO3)cc1 | 7.97
c1cncc(-c2nc3ccccc3[nH]2)c1 | 11.3
CCN(CC)c1ccc(/C=C(/C#N)C(=O)NC(C)C)o1 | -1.68
Cc1ccc(S(=O)(=O)NNC(=S)NC(=O)c2ccc([N+](=O)[O-])cc2)cc1 | -3.16
CC(C)NC(=S)N/N=C/c1ccc2c(c1)OCCO2 | -37.6
COc1ccc(C(=O)/C=C/c2ccccc2)c(O)c1 | 6.19
CC(C)Cn1c(SCC(=O)N2CCCCC2)nc2ccccc2c1=O | -24.7
O=C(CSc1nnc2c(n1)[nH]c1ccccc12)Nc1ccc(N2CCOCC2)cc1 | 11.7
CCOC(=O)C(=CNc1cccc(N)n1)C(=O)OCC | -4.14
N#CCN1CCN(CC(=O)Nc2ccc(OCc3ccccc3)cc2)CC1 | -4.27
COc1cc([N+](=O)[O-])ccc1NC(=S)NCc1ccccn1 | 1.11
Cc1c(NC(=O)C(C)OC(=O)c2ccc(Br)o2)c(=O)n(-c2ccccc2)n1C (stereo not drawn) | 12.3
Cc1cc(NS(=O)(=O)c2ccc(NC(=O)Nc3ccc4c(c3)OCO4)cc2)no1 | 7.65
CCOc1ccccc1CNS(=O)(=O)c1csc(C(N)=O)c1 | 5.08
Cc1ccc(C(=O)N/N=C2\CC3CC=CC23)c(C)c1 (stereo not drawn) | -5.04
COc1ccccc1OC(=O)CCc1nc2ccccc2s1 | 15.9
COc1cccc(CNC(=O)CCC2CCCN(C3CCOCC3)C2)c1 (stereo not drawn) | -0.768
CCOC(=O)C1CCCN(c2nc3ccccc3nc2NS(=O)(=O)c2ccc(C)cc2)C1 (stereo not drawn) | -44.8
CC(C)(C)S(=O)(=O)/C(C#N)=N/Nc1ccc(S(C)(=O)=O)cc1 | 23.4
